Experimental data taken from PubChem BioAssay AID493208 (National Center for Advancing Translational Sciences (NCATS), 2011).
Out of some 44,000 compounds screened, about 340 (0.77%) were called active. About 5% were inconclusive and are not listed. The call rests on the fitted dose curve; in most records, active means well fitted inhibition curve with a large enough effect; inconclusive means small, poorly fitted or top-dose-only effect; inactive means flat fitted curve, though single readings scatter. The list shows a part of the results.

Assay: Acumen qHTS Assay for Inhibitors of the mTORC1 Signaling Pathway in MEF (Tsc2-/-, p53-/-) Cells: Sytravon;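 further: plate controls were DMSO for no effect and rapamycin for full effect; nearly all actives have a fitted effect of over 50% in size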
Settings: phospho-rpS6 immunofluorescence/PI, 24 h; series mostly up to 38.3 µM; activity change, negative = inhibition: at the top concentration
Method in brief: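 Read-out: phospho-S6 Alexa-488 intensity over PI intensity per well, scored as % active cells using thresholds from rapamycin (7.5 nM) and DMSO controls. Tsc2-/-, p53-/- MEFs exposed to compound for 24 h; PI cell count recorded as viability.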

Activity change, negative = inhibition, inactive:
COc1cccc(-c2nc3c(C#N)c[nH]n3c2NC2CCCCC2)c1 -4.26%
N#CC1=C(N)N(c2ccc(Cl)cc2)C2=C(C(=O)CCC2)C1c1cc(CN2CCOCC2)cs1 (configuration not stated) -11.8%
COc1cc(NS(=O)(=O)c2cc(Br)cc3c2N(C(C)=O)C(C)C3)cc(OC)c1 (configuration not stated) -8.56%
O=C(NC1CCCCC1)c1ccc2c(c1)N(Cc1ccc(F)cc1)C(=O)c1ccccc1S2(=O)=O -1.76%
COc1cccc(CNC(=O)Cn2c(=O)cc(C)c3c(C)nn(C)c32)c1OC 2.66%
Cc1cccc(N(C)C(=O)C2CCC(CNS(=O)(=O)c3cccc4nsnc34)CC2)c1 (configuration not stated) 0.714%
CCN(CC)C(=O)c1sc2c(c1C)c(=O)n(-c1ccccc1)c(=O)n2CC(=O)N(CC)c1cccc(C)c1 -1.85%
COc1cc(C(=O)Nc2cc(C)c(O)c(-c3nc4cc(Cl)ccc4o3)c2)cc(OC)c1OC -0.192%
CCOC(=O)CSc1nnc(-c2ccc(OC)cc2)o1 -0.82%
CCCOc1ccc(C(=O)N(Cc2ccc(Cl)cc2)Cc2ccco2)cc1 -2.7%
Cc1cn2c(=O)cc(COC(=O)COc3ccc(C)c(C)c3)nc2s1 -4.31%
COc1cc(NC(=O)CCS(=O)(=O)c2ccc(Br)cc2)cc(OC)c1 1.66%
Cc1ccc(CNC(=O)c2ccc3c(c2)NC(=O)C(CS(=O)(=O)Cc2cccc(C)c2)N3)cc1 (configuration not stated) 0.365%
CCCCN(C)C(=O)CN1C(=O)c2cccnc2Oc2ccc(Cl)cc21 1.12%
CN(C(=O)CSc1nncn2c1cc1occc12)c1ccccc1 -11.3%
O=C(NCc1cccs1)c1ccc2c(c1)sc1nc(-c3ccccc3)cn12 -3.79%
CC(C)c1ccc(-c2noc(SCC(=O)N3CCN(c4ccccc4F)CC3)n2)cc1 4.07%
Cn1c(CNC(=O)CSc2nc(-c3ccccc3F)nc3cc(=O)[nH]n23)nc2ccccc21 3.54%
COc1ccc(Cn2ccn(CC(=O)Nc3cc(C)ccc3C)c(=O)c2=O)cc1 -9.52%
Cc1ccc(NC(=O)Cn2c(=O)ccc3cc(S(=O)(=O)N4CCCC4)ccc32)cc1C -0.351%
Cc1c(C(=O)N2CCC(C(=O)Nc3ccc(F)c(Cl)c3)CC2)sc2nc[nH]c(=O)c12 -7.27%
CCCOc1ccc(C2C(=O)N(C3CCCCCC3)CC(=O)N2C(C)C)cc1OC (configuration not stated) 3.12%
Cc1cc2nn(-c3ccc(F)cc3)nc2cc1NC(=O)c1ccc(C(C)(C)C)cc1 -16.5%
COc1cc(CN(C(=O)c2ccccc2)c2ccccn2)cc(OC)c1OC 0.135%
COc1ccc(-c2cn3cccnc3n2)cc1NC(=O)c1ccccc1C(F)(F)F -1.96%
COc1ccc2c(c1)c(=O)c(C(=O)c1ccc(F)cc1)cn2CC(=O)Nc1ccc2c(c1)OCCO2 -10.6%
COc1cccc(CNC(=O)Nc2cn(CC(C)C)c(=O)c3ccccc23)c1 -4.34%
COc1ccc(-c2oc3ncn4nc(-c5ccccc5OC)nc4c3c2-c2ccc(OC)cc2)cc1 15.8%
Cc1nnc2c3ccccc3nc(Nc3ccc(F)cc3Cl)n12 2.25%
CCOC(=O)c1cc(-c2ccc(F)cc2)n(CCC(=O)Nc2nc3cc(C)c(C)cc3s2)c1C 0.0694%
COc1ccc(OCc2ccc(-c3nc(C#N)c(NCc4ccc(F)cc4)o3)o2)cc1 -11.6%
Cc1nc(N2CCCC2)ncc1C(=O)Nc1ccc(OC(F)(F)F)cc1 4.76%
COc1cc(OC)cc(-n2c(=O)c3sccc3n(Cc3cc(=O)n4c(C)cccc4n3)c2=O)c1 -2.59%
Cc1ccc2c(CC(=O)Nc3nnc(C(C)C)s3)coc2c1C 3.97%
OCCN1CCN(c2ncnc3c2cnn3-c2cccc(Cl)c2)CC1 11.5%
Cc1ccc(Cl)cc1NC(=O)Cn1nnc2sc3c(c2c1=O)CCC(C(C)(C)C)C3 (configuration not stated) 2.72%
Cc1cccc(N(C)S(=O)(=O)c2nnc(NC(=O)C(C)(C)C)s2)c1 -2.92%
COc1ccc(CCNc2ncnc3c2cnn3-c2ccc(F)cc2)cc1 16.4%
Brc1ccc(CN2CCc3nc(Nc4ccccc4)ncc3C2)s1 0%
COc1ccc(N(Cc2cc3cc(OC)ccc3[nH]c2=O)C(=O)c2cccc(Cl)c2)cc1 5.71%
COc1ccc(OC)c(CNC(=O)c2cc3c(=O)oc4ccc(C)cc4c3s2)c1 -1.53%
COCCn1c(CCC(=O)Nc2ccc(OC)c(OC)c2)nc2cccnc21 -7.18%
O=C(NCc1ccccc1Cl)c1cc(-c2ccccc2)n[nH]1 -8.05%
O=C(Cn1c2ncccc2c(=O)n1-c1ccccc1)NCc1ccccc1 6.5%
Cc1nc(-c2ccccc2)sc1-c1ccc(SCC(=O)Nc2ccccc2)nn1 5.08%
Cc1oc(-c2cccc(Br)c2)nc1CN1CCC(C(=O)NCc2ccccc2)CC1 2.72%
COc1cccc(CNC(=O)Cc2c(C)c3cc4c(C)coc4cc3oc2=O)c1 0.145%
Cc1cc(C)cc(NC(=O)CSc2nccn2C2CCCC2)c1 -0.979%
COc1cccc(NC(=O)c2csc3c2CCCCC3)c1 -1.68%
CCc1ccc(NC(=O)N2CCN(c3nnc(C)c4c(C)n(-c5ccc(Cl)cc5)nc34)CC2)cc1 -14.6%
Cc1ccc(CNCc2ccc3c(c2)n(C)c(=O)n3C)cc1 -10.8%
O=C(CCNS(=O)(=O)c1ccc(Br)s1)Nc1ccc(Br)cc1 -3.8%
c1ccc(Nc2c(-c3ccccc3)nc3ncccn23)cc1 -8.59%
CCN1C(=O)c2ccccc2Sc2ccc(NC(=O)Cc3ccc(OC)c(OC)c3)cc21 -10.4%
COc1ccc2c(c1)c(=O)c(S(=O)(=O)c1ccc(F)cc1)cn2CC(=O)Nc1ccc(C)cc1C 5.07%
COc1cc(NS(=O)(=O)c2ccc(NC(=O)COc3ccc(Cl)cc3Cl)cc2)nc(OC)n1 16.1%
CCOc1cccc(CC(=O)NCc2ccc3c(c2)CCN3C(=O)c2cccc(C)c2)c1OCC -20.9%
COc1ccc(CN(C(=O)Nc2cc(C)ccc2C)C2CCN(C(C)=O)CC2)cc1 -4.74%
CCOc1ccccc1N(CC)C(=O)Cn1ncc2c1-c1ccccc1OC2 -8.63%
CCOc1ccc(NC(=O)CSc2nc(-c3ccccc3)c3cc(OCC)ccc3n2)cc1 2.84%
COc1ccc(CNC(=O)c2cnc3sc4cc(OC)ccc4n3c2=O)cc1 -2.81%
O=C(NCc1ccccc1Cl)C(=O)NCC(c1ccc2c(c1)OCO2)N1CCOCC1 (configuration not stated) -1.29%
